Source: PMC9831603
Results are given in words; binding and its absence hold for the method and conditions named. In cells and extracts the contact can be indirect. Some entries that bind do so weakly or less than the wild type.

Chains of the proteins cited; added tags and fusions are not shown. Lines headed by an entry give the natural chain unless they say otherwise; changes in a name come on top. A line that says so, or that is headed by a name, gives the form on record, which may keep a tag or linker.
Arl3-Y90C-FLAG (P36405, form named): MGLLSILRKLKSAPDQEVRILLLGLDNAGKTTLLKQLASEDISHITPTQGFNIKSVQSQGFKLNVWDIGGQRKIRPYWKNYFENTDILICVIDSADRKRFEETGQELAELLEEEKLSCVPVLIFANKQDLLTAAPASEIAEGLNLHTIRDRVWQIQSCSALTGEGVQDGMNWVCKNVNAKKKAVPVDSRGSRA
Arl3-D129N-FLAG (P36405, form named): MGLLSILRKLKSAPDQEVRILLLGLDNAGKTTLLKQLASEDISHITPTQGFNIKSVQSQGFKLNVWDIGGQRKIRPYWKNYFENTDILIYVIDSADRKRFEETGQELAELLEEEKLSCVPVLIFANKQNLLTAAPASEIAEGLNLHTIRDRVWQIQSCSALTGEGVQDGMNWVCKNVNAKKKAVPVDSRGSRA
Arl3-Y90C/R149H-FLAG (P36405, form named): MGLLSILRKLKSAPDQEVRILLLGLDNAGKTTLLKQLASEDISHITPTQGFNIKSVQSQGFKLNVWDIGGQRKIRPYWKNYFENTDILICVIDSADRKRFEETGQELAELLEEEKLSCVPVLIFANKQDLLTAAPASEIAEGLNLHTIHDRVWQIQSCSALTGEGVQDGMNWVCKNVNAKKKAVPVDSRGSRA
Arl3-T31N/Y90C-FLAG (P36405, form named): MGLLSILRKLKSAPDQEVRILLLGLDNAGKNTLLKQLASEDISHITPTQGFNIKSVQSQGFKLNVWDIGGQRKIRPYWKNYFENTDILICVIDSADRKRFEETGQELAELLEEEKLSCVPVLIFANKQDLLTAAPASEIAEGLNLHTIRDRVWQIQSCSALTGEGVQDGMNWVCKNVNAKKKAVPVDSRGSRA
wild-type Arl3-FLAG (P36405, form named): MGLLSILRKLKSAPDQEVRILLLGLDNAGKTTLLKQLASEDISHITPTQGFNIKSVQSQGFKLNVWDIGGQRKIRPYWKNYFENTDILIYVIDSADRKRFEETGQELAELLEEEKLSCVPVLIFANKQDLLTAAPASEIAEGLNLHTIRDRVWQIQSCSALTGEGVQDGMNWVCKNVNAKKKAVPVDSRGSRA

Columns and labels:
[1] = biological target: Arl3-Y90C-FLAG (human) (UniProt P36405); test: cross-linking + co-IP; AD-293 cells expressing Arl3-FLAG constructs incubated with 1 mM DSS in PBS, 37°C 10 min, quenched with Tris; FLAG immunoprecipitation; cross-linked complexes with endogenous partners (or co-expressed UNC119a-myc) seen by immunoblot (~65, ~55, ~45 kDa bands)
[2] = biological target: Arl3-D129N-FLAG (human) (UniProt P36405); test: as above
[3] = biological target: Arl3-Y90C/R149H-FLAG (human) (UniProt P36405); test: as above
[4] = biological target: Arl3-T31N/Y90C-FLAG (human) (UniProt P36405); test: as above
[5] = biological target: wild-type Arl3-FLAG (human) (UniProt P36405); test: condition: only with co-expressed myc-tagged Arl3-Y90C or Arl3-T31N/Y90C; cross-linking + co-IP; in-cell DSS cross-linking and FLAG immunoprecipitation from AD-293 cells co-expressing Arl13B-GFP, wild-type Arl3-FLAG and myc-tagged Arl3-Y90C or Arl3-T31N/Y90C; immunoblot
[6] = biological target: wild-type Arl3-FLAG (human) (UniProt P36405); test: cross-linking + co-IP; in-cell DSS cross-linking and FLAG immunoprecipitation from AD-293 cells co-expressing Arl13B-GFP with Arl3-FLAG constructs (also with Arl3-T31N-myc); immunoblot

binding [1]: binds
binding [2]: binds
binding [3]: binds
binding [4]: no binding
binding [5]: no binding
binding [6]: binds
B1: BART (endogenous) (protein, UniProt Q9Y2Y0 1-163)
chain: MDALEGESFALSFSSASDAEFDAVVGYLEDIIMDDEFQLLQRNFMDKYYLEFEDTEENKLIYTPIFNEYISLVEKYIEEQLLQRIPEFNMAAFTTTLQHHKDEVAGDIFDMLLTFTDFLAFKEMFLDYRAEKEGRGLDLSSGLVVTSLCKSSSLPASQNNLRH
